Our source for the IC50 values is patent US12583836B2 (Anaxis Pharma Pty Ltd, priority 2020, dated 2026).

In test [1] the test system is U937 human histiocytic leukemia cell line. The test is described as follows: Inhibition of TSQ induced necroptosis, 384 well plate format (CellTitre-Glo). The settings on record: Homo sapiens, U-937; U937 cells, TSQ cocktail (TNF, Smac mimetic, Q-VD-OPh), CelltiterGlo; read-out: Inhibition of TSQ-induced necroptosis (IC50 cell-based assay). The protocol: […] ASSAY: Screening compounds for inhibition of TSQ induced necroptosis, 384 well plate format.
Cell Line ID: U937 human histiocytic leukemia cell line.
Cell Concentration (cells/well): Final cell density is 20000 cells per well.
Cell growth medium: HT-RPMI medium+7.4% Fetal Bovine Serum (FBS). Cells are cultured in Corning 150 cm^2 tissue culture flasks with vented caps at 37° C./5% CO2.
Incubation: Plates were incubated at 37° C./5% CO2 in a humidified incubator for 48 hours following addition of compounds and death stimuli (TSQ cocktail).
Compound concentration: 36 μM starting concentration, 1:3 dilution, 10 point
DMSO final concentration (% v/v): 0.3%.
Compounds in TSQ cocktail (T: TNF; S: Smac mimetic; Q: Q-VD-OPh) and their final concentrations:
hTNF-Fc (100 ng/ml)—produced by standard procedures as shown in Bossen et al., J Biol Chem, 2006, 281(20), 13964-13971.
Compound A (500 nM)—Smac mimetic, Tetralogic and SYNthesis med chem
Q-VD-OPh (10 μM)—MP Biomedicals
The cellular assay was carried out according to the following steps: • 1. Each well was prepared by sequential addition of: • a. DMSO (control; columns 1-2 and 23-24) or compound in DMSO—addition was performed using acoustic transfer of nl volumes of stock compound to give final test concentrations of 36, 12, 4, 1.3, 0.44, 0.148, 0.049, 0.016, 0.005 and 0.002 μM. All wells were backfilled with DMSO to a final total volume in the well of 100 nl. • b. Following compound/DMSO addition in step (a), 40 μL of cell suspension (5×10^5 cells/mL) was added to provide a final cell concentration of 20,000 cells per well, and • c. Following cell addition in step (b), 10 μL of 5×TSQ cocktail (except to positive controls; columns 1 and 23) was added to each well. • 2. After 48 hours, plate was removed from the 37° C. incubator and equilibrated to room temperature for 45 minutes. • 3. 15 μL of room temperature CellTitre-Glo2™ (Promega™) was added to each well. • 4. Shook plates for 2 minutes (˜600 rpm) and incubated at room temperature for 15 minutes to allow signal to stabilise. • 5. Read luminescence readout on a plate reader. Analysis:
Percent viability was calculated for each compound according to equation (2):
[formula] • wherein • RawData is the readout of any cell containing a compound of the invention • TA is the total activity provided by the luminescence readout from DMSO only wells (columns 2 and 24)=100% viability • NSA is the non-specific activity provided by DMSO+TSQ wells (columns 1 and 23)=0% viability
Curve fitting: 10-point titration curves are fitted with the 4-parameter logistic nonlinear regression model and the IC50 reported is the inflection point of the curve.
Analysis: Data was loaded into Dotmatics™ and visualised using the Tibco® Spotfire™ software. 10 points titration curves were fitted with the 4-parameter logistic nonlinear regression model and the IC50 reported reflect the inflection point of the curve for curve fitting.
Assay involving the TSQ cocktail (T: TNF; S: Smac mimetic; Q: Q-VD-OPh): TSQ treatment ensures that cells specifically undergo necroptotic cell death. TNF activates the TNF receptor, Smac mimetic directs the signal away from proinflammatory signaling and toward the RIP1/RIP3-mediated cell death pathways, and Q-VD-OPh ensures that the apoptotic response is blocked leaving only the programmed necrosis response. The compounds' activity (solution in DMSO) tested in this TSQ-induced assay was evaluated by determining the number of viable cells in culture by measuring the amount of ATP present as measured by CelltiterGlo.

For another test, the system named is U937 cells. The test is described as follows: Counter screen: cell viability without the TSQ cocktail (CelltiterGlo). On the set-up: species or system human. The settings on record: Homo sapiens, U-937, cell viability by CelltiterGlo, read-out: Off-target effect (IC50 cell-based assay). The protocol: Counter screen: In parallel, all compounds were tested for their ability to affect cell viability. The same U937 cells were treated with compound in DMSO without the TSQ cocktail. This counter screen enabled evaluation of off-target effects. In this case, cell viability was measured by CelltiterGlo.

`C[C@H](Oc1cc(-c2n[nH]c(Nc3ncn(C)n3)c2C(N)=O)ccc1NS(=O)(=O)C(F)F)c1ccc(F)cc1` [Compound 283, (S)-3-(4-((difluoromethyl)sulfonamido)-3-(1-(4-fluorophenyl)ethoxy)phenyl)-5-((1-methyl-1H-1,2,4-triazol-3-yl)amino)-1H-pyrazole-4-carboxamide]: the IC50 in test [1] is 10 to 1000 nM; in the test on U937 cells, more than 30000 nM.

Turning to `Cc1nc(Nc2[nH]nc(-c3ccc(NS(=O)(=O)C(F)F)c(O[C@@H](C)c4ccc(F)cc4)c3)c2C(N)=O)sc1C` [Compound 284, (S)-3-(4-((difluoromethyl)sulfonamido)-3-(1-(4-fluorophenyl)ethoxy)phenyl)-5-((4,5-dimethylthiazol-2-yl)amino)-1H-pyrazole-4-carboxamide], the values for the IC50 (in test [1]; with U937 cells) were 10 to 1000 nM and more than 30000 nM, respectively.

For the compound `Cc1cn(C)nc1Nc1[nH]nc(-c2ccc(NS(=O)(=O)C(F)F)c(O[C@@H](C)c3ccc(F)cc3)c2)c1C(N)=O` [Compound 286], the IC50 in test [1] was 1000 to 30000 nM; in the test with U937 cells it was more than 30000 nM.

`COCC(C)(C)c1cc(Nc2[nH]nc(-c3ccc(NS(=O)(=O)C(F)F)c(O[C@@H](C)c4ccc(F)cc4)c3)c2C(N)=O)no1` [Compound 288, (S)-3-(4-((difluoromethyl)sulfonamido)-3-(1-(4-fluorophenyl)ethoxy)phenyl)-5-((5-(1-methoxy-2-methylpropan-2-yl)isoxazol-3-yl)amino)-1H-pyrazole-4-carboxamide]: the figures for the IC50 (in test [1]; in the test on U937 cells) were less than 10 nM and more than 30000 nM, respectively.

For `C[C@H](Oc1cc(-c2n[nH]c(Nc3cc(C4(C(F)(F)F)CC4)on3)c2C(N)=O)ccc1NS(=O)(=O)C(F)F)c1ccc(F)cc1` [Compound 289, (S)-3-(4-((difluoromethyl)sulfonamido)-3-(1-(4-fluorophenyl)ethoxy)phenyl)-5-((5-(1-(trifluoromethyl)cyclopropyl)isoxazol-3-yl)amino)-1H-pyrazole-4-carboxamide], the IC50 in test [1] is less than 10 nM; in the test on U937 cells, more than 30000 nM.

Regarding `Cc1cnc(Nc2[nH]nc(-c3ccc(NS(=O)(=O)C(F)F)c(OC4(c5ccc(F)cc5)CC4)c3)c2C(N)=O)cn1` [Compound 290, 3-(4-((difluoromethyl)sulfonamido)-3-(1-(4-fluorophenyl)cyclopropoxy)phenyl)-5-((5-methylpyrazin-2-yl)amino)-1H-pyrazole-4-carboxamide], the values for the half-maximal inhibitory concentration (IC50) (in test [1]; in the test with U937 cells) were 10 to 1000 nM and more than 30000 nM, respectively.

For the compound `C[C@H](Oc1cc(-c2n[nH]c(Nc3cc(C4(C)COC4)on3)c2C(N)=O)ccc1NS(=O)(=O)C(F)F)c1ccc(F)cc1` [Compound 292, (S)-3-(4-((difluoromethyl)sulfonamido)-3-(1-(4-fluorophenyl)ethoxy)phenyl)-5-((5-(3-methyloxetan-3-yl)isoxazol-3-yl)amino)-1H-pyrazole-4-carboxamide], the IC50 in test [1] was 10 to 1000 nM; with U937 cells it was more than 30000 nM.

Consider `COc1cc(Nc2[nH]nc(-c3ccc(NS(=O)(=O)C(F)F)c(O[C@@H](C)c4ccc(F)cc4)c3)c2C(N)=O)nn1C` [Compound 294, (S)-3-(4-((difluoromethyl)sulfonamido)-3-(1-(4-fluorophenyl)ethoxy)phenyl)-5-((5-methoxy-1-methyl-1H-pyrazol-3-yl)amino)-1H-pyrazole-4-carboxamide], for which the IC50 in test [1] was 1000 to 30000 nM; in the test with U937 cells, more than 30000 nM.

Consider `C[C@H](Oc1cc(-c2n[nH]c(Nc3cc(C(C)(C)C)no3)c2C(N)=O)ccc1NS(=O)(=O)C(F)F)c1ccc(F)cc1` [Compound 295, (S)-5-((3-(tert-butyl)isoxazol-5-yl)amino)-3-(4-((difluoromethyl)sulfonamido)-3-(1-(4-fluorophenyl)ethoxy)phenyl)-1H-pyrazole-4-carboxamide], for which the half-maximal inhibitory concentration (IC50) in test [1] was 10 to 1000 nM; in the test on U937 cells it was more than 30000 nM.

On to `C[C@H](Oc1cc(-c2n[nH]c(Nc3cnc(C4CCOCC4)cn3)c2C(N)=O)ccc1NS(=O)(=O)C(F)F)c1ccc(F)cc1` [Compound 296, (S)-3-(4-((difluoromethyl)sulfonamido)-3-(1-(4-fluorophenyl)ethoxy)phenyl)-5-((5-(tetrahydro-2H-pyran-4-yl)pyrazin-2-yl)amino)-1H-pyrazole-4-carboxamide], for which the half-maximal inhibitory concentration (IC50) in test [1] is less than 10 nM; in the test with U937 cells, more than 30000 nM.

As for `Cc1cc(Nc2[nH]nc(-c3ccc(NS(=O)(=O)C(F)F)c(O[C@@H](C)c4ccc(F)cc4)c3)c2C(N)=O)on1` [Compound 302, (S)-3-(4-((difluoromethyl)sulfonamido)-3-(1-(4-fluorophenyl)ethoxy)phenyl)-5-((3-methylisoxazol-5-yl)amino)-1H-pyrazole-4-carboxamide], the IC50 in test [1] is 10 to 1000 nM; with U937 cells, more than 30000 nM.

Turning to `C[C@H](Oc1cc(-c2n[nH]c(Nc3cc(C4CCOC4)on3)c2C(N)=O)ccc1NS(=O)(=O)C(F)F)c1ccc(F)cc1` (stereo partly drawn) [Compound 305, 3-(4-((difluoromethyl)sulfonamido)-3-((S)-1-(4-fluorophenyl)ethoxy)phenyl)-5-((5-(tetrahydrofuran-3-yl)isoxazol-3-yl)amino)-1H-pyrazole-4-carboxamide], the IC50 in test [1] was 10 to 1000 nM; with U937 cells it was more than 30000 nM.

On to `NC(=O)c1c(-c2ccc(NS(=O)(=O)C(F)F)c(OC3(c4ccc(F)cc4)CC3)c2)n[nH]c1Nc1cnccn1` [Compound 307, 3-(4-((difluoromethyl)sulfonamido)-3-(1-(4-fluorophenyl)cyclopropoxy)phenyl)-5-(pyrazin-2-ylamino)-1H-pyrazole-4-carboxamide], for which the IC50 in test [1] was 10 to 1000 nM; in the test on U937 cells, more than 30000 nM.

On to `Cc1cc(Nc2[nH]nc(-c3ccc(NS(=O)(=O)CC(F)(F)F)c(O[C@@H](C)c4ccc(F)cc4)c3)c2C(N)=O)no1` [Compound 311, (S)-3-(3-(1-(4-fluorophenyl)ethoxy)-4-((2,2,2-trifluoroethyl)sulfonamido)phenyl)-5-((5-methylisoxazol-3-yl)amino)-1H-pyrazole-4-carboxamide], for which the results for the IC50 (in test [1]; in the test on U937 cells) were 1000 to 30000 nM and more than 30000 nM, respectively.

For `C[C@H](Oc1cc(-c2n[nH]c(Nc3cnc(C(C)(C)C)cn3)c2C(N)=O)ccc1NS(=O)(=O)C(F)F)c1ccc(F)cc1` [Compound 312, (S)-5-((5-(tert-butyl)pyrazin-2-yl)amino)-3-(4-((difluoromethyl)sulfonamido)-3-(1-(4-fluorophenyl)ethoxy)phenyl)-1H-pyrazole-4-carboxamide], the results for the IC50 (in test [1]; in the test on U937 cells) were less than 10 nM and more than 30000 nM, respectively.

Consider `C[C@H](Oc1cc(-c2n[nH]c(Nc3cnc(C4CC4)cn3)c2C(N)=O)ccc1NS(=O)(=O)C(F)F)c1ccc(F)cc1` [Compound 316, (S)-5-((5-cyclopropylpyrazin-2-yl)amino)-3-(4-((difluoromethyl)sulfonamido)-3-(1-(4-fluorophenyl)ethoxy)phenyl)-1H-pyrazole-4-carboxamide], for which the IC50 in test [1] was less than 10 nM; in the test on U937 cells it was more than 30000 nM.

In the case of `CCS(=O)(=O)Nc1ccc(-c2n[nH]c(Nc3cc(C)on3)c2C(N)=O)cc1O[C@@H](C)c1ccc(F)cc1` [Compound 317, (S)-3-(4-(ethylsulfonamido)-3-(1-(4-fluorophenyl)ethoxy)phenyl)-5-((5-methylisoxazol-3-yl)amino)-1H-pyrazole-4-carboxamide], the IC50 in test [1] lay in the range of 10 to 1000 nM; in the test with U937 cells, 1000 to 30000 nM.
